Laboratory results as given in PubChem BioAssay AID463173 (ICCB-Longwood Screening Facility, Harvard Medical School, 2010).
In all, about 52,000 compounds went through this assay and about 4,300 (8.3%) were called active. Cut-off read from the data, not from the text of the source: active = survival mostly below about 52% (no sharp cut-off); inactive = mostly above about 56%. This is one part of the list.

Tested on: DeltatarO mutant
Assay: growth inhibition of S. aureus wild type versus tarO mutant, primary screen, teichoic acid synthesis inhibitors, RN4220, OD600 (AID 463173)
Conditions: OD600, 18 h, active compounds read low, screened at 18.75 µg/mL (by protocol)

SMILES	survival
CCc1ccc(CNC(=O)CSc2cc(=O)n(CC)c3ccccc23)cc1	inactive: 87%
CCNC(=O)c1c(C)oc2ncn(C)c(=O)c12	inactive: 91%
COc1ccc(-c2nc(N)n(C(=O)c3ccco3)n2)cc1	inactive: 103%
CCc1nn(CC(=O)N(CC)Cc2ccccc2)c(=O)c2cc3occc3n12	inactive: 54%
CCOc1ccccc1NC(=O)Cn1c(=O)n(-c2ccccc2)c(=O)c2c1c1cc(C)ccc1n2C	inactive: 70%
COc1ccc(NC(=O)CN2C(=O)CCc3cc(S(=O)(=O)N4CCOCC4)ccc32)c(OC)c1	inactive: 80%
CCN(C(=O)CSc1nnc(-c2cc3occc3n2C)n1-c1ccccc1C)c1cccc(C)c1	inactive: 92%
COc1ccc(-c2cn3c(n2)sc2cc(C(=O)NCCCN4CCCCC4)ccc23)cc1	inactive: 69%
Cc1ccc(NC(=O)c2cc3c(-c4ccccc4)nn(-c4ccccc4)c3s2)cc1	inactive: 50%
O=C(Nc1ccc(Br)cc1F)C(NS(=O)(=O)c1cccc2nsnc12)c1ccccc1 (centres undefined)	inactive: 78%
CCOc1ccccc1NC(=O)Nc1cc(C(=O)NCc2ccc(C)cc2)ccc1N1CCCC1	inactive: 83%
COc1ccc(OC)c(NC(=O)c2c(NCc3ccc(OC)c(OC)c3)sc3c2CCC3)c1	inactive: 101%
C/C(=N\NC(N)=O)C1CC(Cc2ccccc2)C(=O)O1 (centres undefined)	inactive: 57%
O=C(C1CCCCC1)N1CCC(n2nnc3ccccc32)CC1	inactive: 95%
COc1ccc(NC(=O)Cn2c(=O)n(CC(=O)NCCc3ccccc3)c(=O)c3ccccc32)cc1	inactive: 82%
CCn1c(SCc2ccc(C)cc2)nnc1-c1ccc(S(=O)(=O)N2CCOCC2)cc1	inactive: 100%
CCc1ccc(NS(=O)(=O)c2ccc3[nH]cc(C(=O)NCc4ccc(C)cc4)c(=O)c3c2)cc1	inactive: 65%
Clc1ccc2nc(Nc3ccccc3Cl)nc(-c3ccccc3)c2c1	inactive: 75%
CCOc1ccc(-n2c(=O)c3c4c(sc3n(Cc3cccc(C)c3)c2=O)CCCC4)cc1	inactive: 57%
Cc1ccc(-c2cn3c(n2)sc2cc(C(=O)NC4CCCc5ccccc54)ccc23)cc1 (centres undefined)	inactive: 77%
CC(C)(C)c1ccc(CN(Cc2ccco2)Cc2nnnn2C2CCCCC2)cc1	inactive: 105%
CCOCCCNC(=O)C1CCN(c2cc(C)nc3c(-c4ccc(Cl)cc4)c(C)nn23)CC1	inactive: 83%

SMILES	survival
CCc1ccc(NCc2cc3cc4c(cc3n(CC(=O)Nc3ccccc3Cl)c2=O)OCO4)cc1	inactive: 73%
CCOc1ccc(-c2c(C)nn3c(C)c(C(=O)NCCc4ccccc4)cnc23)cc1OCC	inactive: 54%
COc1ccc2c(c1)c1c(c(=O)n(-c3ccc(F)c(Cl)c3)c(=O)n1CC(N)=O)n2C	inactive: 96%
CC(=O)Nc1ccc(S(=O)(=O)NC2(C(F)(F)F)NC(=O)N(c3ccccc3F)C2=O)cc1 (centres undefined)	inactive: 82%
CCC1CN(C(=O)Nc2cccc(OC)c2)c2ccccc2O1 (centres undefined)	inactive: 97%
COc1cccc2c1cc1c(=O)n(CC(=O)O)nc(C)n12	inactive: 106%
CCOc1ccc(Nc2sc(C(=O)c3ccc4c(c3)OCO4)c(N)c2S(=O)(=O)c2ccc(C)cc2)cc1	inactive: 77%
Cn1nc(C(=O)N2CCN(c3ccc(Cl)cc3)CC2)c2c1-c1ccccc1S(=O)(=O)C2	inactive: 51%
COc1ccccc1CNC(=O)CSc1cc(=O)n(C)c2ccccc12	inactive: 94%
COc1ccc(-c2cc(C(F)(F)F)nc(NCc3ccc(Cl)cc3)n2)cc1	active: 3%
O=C(Nc1cc(-c2nc3ccccc3o2)ccc1Cl)c1ccc(Br)o1	active: 54%
Cc1c(C(=O)NCc2ccccc2)sc2nc[nH]c(=O)c12	inactive: 94%
Cc1ccc(CCNc2nc3c(S(=O)(=O)c4ccccc4)nnn3c3ccsc23)cc1	active: 62%
COc1cc(-c2noc(-c3ccc(N(C)C)c([N+](=O)[O-])c3)n2)cc(OC)c1OC	inactive: 77%
Cc1ccccc1Cn1c2ccccc2c2cnn(CC(=O)NCCCc3ccccc3)c(=O)c21	inactive: 84%
N#Cc1ccc(CSCC(=O)NN=C2CCCC2)cc1	inactive: 65%
O=C(Cn1c(-c2cccs2)cc2cc(F)ccc21)N1CCN(c2cccc(Cl)c2)CC1	inactive: 91%
COc1cccc(Cc2nc3ccccc3nc2SCC(=O)N2CCN(c3ccccc3)CC2)c1	inactive: 92%
COc1ccc(CN(Cc2ccco2)C(=O)c2ccccc2F)cc1	inactive: 74%
CCn1c(CC2C(=O)Nc3ccccc32)nc2ccccc2c1=O (centres undefined)	inactive: 76%
Cc1cccc(C)c1NS(=O)(=O)c1ccc2c(c1)[C@H]1C=CC[C@H]1[C@@H](c1ccc(Cl)cc1)N2	inactive: 53%
CCOc1ccc(C2C(C(=O)Nc3ccccc3OC)=C(C)Nc3c(C(=O)Nc4cccc(C)c4)cnn32)cc1 (centres undefined)	inactive: 88%
